Measured values as given in PubChem BioAssay AID1688 (National Center for Advancing Translational Sciences (NCATS), 2009).
Out of some 220,000 compounds screened, about 2,400 (1.1%) were called active. Roughly 7% stayed inconclusive and do not appear here. Calls come from the whole dose curve; as a rule, active = well fitted inhibition curve with a large enough effect; inconclusive = small, poorly fitted or top-dose-only effect, or effect the other way; inactive = no such curve, though single readings can be large or run the other way. Only a part is listed here, and it is no random draw.
% is set by controls: 0 for no effect and ±100 for the full control effect.

Experiment: qHTS Multiplex Assay to Identify Dual Action Probes in a Cell Model of Huntington: Aggregate Formation (GFP); note: nearly all actives have a fitted effect of over 60% in size
Details: PC12 HttQ103-GFP aggregates, Acumen cytometry, 40 h; series mostly up to 46.1 µM; activity change, negative = inhibition: at the top concentration
Source text: NIH Chemical Genomics Center [NCGC]
NIH Molecular Libraries Probe Production centers Network [MLPCN]
Assay Submitter (PI): Wei Zheng
Huntington's disease is a neurodegenerative disorder caused by a trinucleotide repeat expansion in Exon 1 of the Huntingtin gene. The CAG trinucleotide encodes glutamine and polyglutamine expansions cause cell death in selective areas of the brain. Huntington polyglutamine repeats have the tendency to form aggregates which are observable in later stages of the disease. The exact nature of the aggregates, whether toxic, protective, or insignificant, is unclear.
A stable PC12 cell line containing a gene fusion of Exon 1 of the Huntingtin gene linked to GFP under the control of the inducible ecdysone promoter were used as the cell-based model of Huntington Disease for high throughput screening. Exon 1 of the Huntingtin gene contained an expansion of 103 polyglutamines (Q103) which, when expressed, caused cell death and distinct, bright GFP aggregates. The amount of cell death and the size and intensity of GFP aggregates increased over time and induction level. The cell death were quantified with a measurement of ATP content in the cells. A maximal 40-50% of cell death was observed when the Huntington gene was induced in this cell line.
We optimized this assay in a homogeneous 1536 well format. A quantitative high throughput screen (qHTS) was conducted on the PC12 cells which were induced to express the toxic fusion construct. Small molecules which reduced aggregate formation were identified bu using a laser scanning cytometer calibrated to detect the aggregates in cell lysates.
PC12 cells stably containing a construct with an ecdysone inducible promoter expressing GFP fused to the exon 1 of HTTQ103 (Huntington protein which containing a 103 ployglutamine expansion) were used.
NCGC Assay Protocol Summary:
Sequence, Parameter, Description
1, Reagent, 5 uL 1500 cells/well 1536 TC treated White clear bottom plate
2, Compound, 23 nL Tebufenozide inducer (100 nM final) to all columns
3, Compound, 23 nL 40 uM to 0.5 nM Libraries
5, Reagent, 5 ul ATPLite cell death assay reagent
6, Detector, Aggregate quantitation by Acumen Explorer
Media consisted of phenol red free DMEM + 5% equine serum (Hyclone # SH30072.03 ), 5% supplemented Bovine Calf Serum (Hyclone # SH30074.03 ), 1x pen/strep, no G418
Acumen Explorer was used to quantitate GFP aggregates using the following criteria: […] laser excitation, 500-530 nm emission, the PMT was set at a voltage of 450 volts, and objects ranging in size of […] in size having a signal of 6 STDEV above background were collected.
Control columns: 1 = DMSO, 2= 2 uM teb dilns (1:1), 4 = 100 nM Teb inducer. Sample columns received 100 nM Teb.
With `CC(C)C(=O)Nc1ccc([N+](=O)[O-])c(C(F)(F)F)c1` the “activity change, negative = inhibition” value was inactive: -13.2%. With `CC(=O)[O][Hg][c]1ccccc1` the Potency was active: 1.58 µM. With `CNCCC(Oc1ccc(C(F)(F)F)cc1)c1ccccc1` (configuration not stated) the “activity change, negative = inhibition” value was inactive: 1.04%. With `CCCCCn1c(=O)c(C(=O)NCc2ccccn2)c(O)c2ccccc21` the Potency was active: 31.6 µM. With `CN1CCC2(CC1)C(C#N)=C(N)NC(S)=C2C#N` the “activity change, negative = inhibition” value was inactive: 14.3%. With `Clc1ccc(CS[C@@H](Cn2ccnc2)c2ccc(Cl)cc2Cl)cc1` the “activity change, negative = inhibition” value was inactive: -9.38% [at 20.6 µM]. For `C[C@H]1CC[C@@H]2[C@@H](C)[C@H]3[C@H](C[C@H]4[C@@H]5CC=C6C[C@@H](O[C@@H]7O[C@H](CO)[C@H](O)[C@H](O[C@@H]8O[C@H](CO)[C@@H](O)[C@H](O)[C@H]8O)[C@H]7O[C@@H]7O[C@@H](C)[C@H](O)[C@@H](O)[C@H]7O)CC[C@]6(C)[C@H]5CC[C@]34C)N2C1`, the “activity change, negative = inhibition” value was inactive: -25.4%. In the case of `O=C1NC(=O)N(Cc2ccccc2)C(=O)/C1=C/C=C/c1ccco1`, the activity change, negative = inhibition is reported as inactive: -8.7% [at 9.22 µM]. With `O=C(Nc1ccc(Cl)cc1)Nc1ccc(Cl)c(Cl)c1` the Potency was active: 11.2 µM. For `Cn1nc(-c2ccc(OCC(=O)N3CCN(Cc4ccccc4)CC3)cc2)c2ccccc2c1=O`, the “activity change, negative = inhibition” value was inactive: 3.39%. In the case of `COC(=O)C1=CO[C@@H](C)[C@@H]2CN3CC[C@@]4(C(=O)Nc5ccccc54)[C@@H]3C[C@H]12`, the “activity change, negative = inhibition” value is reported as inactive: -0.468%. With `COC(=O)C1=COC(C)C2CN3CCC4(C(=O)Nc5ccccc54)C3CC12` (configuration not stated) the activity change, negative = inhibition was inactive: 8.53% [at 9.22 µM].
